Measurements reported in PubChem BioAssay AID360 (National Center for Advancing Translational Sciences (NCATS), 2006).
In all, about 48,000 compounds went through this assay and about 550 (1.1%) were called active. Another 4% or so got no clear call; they are omitted. Cut-off read from the data, not from the text of the source: active = potency below about 15 µM; inconclusive = mostly about 16 µM to 33 µM; inactive = weaker than that. The list shows a part of the results.

target: Lysosomal acid glucosylceramidase (Homo sapiens) (UniProt P04062); experiment: Glucocerebrosidase; settings: purified enzyme, resorufin glucoside fluorescence (screen aimed at inhibitors), 20 min;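 note: the screen sought inhibitors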
In short: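 Normal human glucocerebrosidase (0.2 nM final) was assayed with resorufin β-D-glucopyranoside (30 uM final) in 50mM citric acid/KH2PO4, 10mM sodium taurocholate, 0.01% tween-20, pH 5.9. Compounds were titrated; fluorescence (Ex 548, Em 600) read after 20 min at RT.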
Potency is the fitted concentration of half-maximal effect.

Sequence of UniProt P04062 (P04062 whole entry, looked up): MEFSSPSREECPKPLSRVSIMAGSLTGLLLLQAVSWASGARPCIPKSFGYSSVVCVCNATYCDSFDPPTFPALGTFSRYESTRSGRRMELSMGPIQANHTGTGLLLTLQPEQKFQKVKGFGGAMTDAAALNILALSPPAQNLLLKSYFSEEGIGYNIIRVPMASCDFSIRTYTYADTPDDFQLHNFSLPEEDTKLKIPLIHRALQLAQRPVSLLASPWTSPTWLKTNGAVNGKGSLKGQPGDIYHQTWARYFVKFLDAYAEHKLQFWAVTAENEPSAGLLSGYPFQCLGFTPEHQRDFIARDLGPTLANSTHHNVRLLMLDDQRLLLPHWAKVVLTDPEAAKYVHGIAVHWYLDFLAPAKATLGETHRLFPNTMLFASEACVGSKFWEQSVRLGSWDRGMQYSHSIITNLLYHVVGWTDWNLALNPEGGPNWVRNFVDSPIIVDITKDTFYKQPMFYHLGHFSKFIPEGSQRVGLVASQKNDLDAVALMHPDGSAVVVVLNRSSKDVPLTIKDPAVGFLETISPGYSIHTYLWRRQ

Structure (SMILES)	Potency
CC12CCCCC1N(O)CN2O (centres undefined)	inactive: > 76.9 µM
O=C(c1cc(S(=O)(=O)N2CCOCC2)ccc1F)N1CCC2(CC1)OCCO2	inactive: > 76.9 µM
CN=C(SCc1ccccc1)c1c(O)n(C)c(=O)n(C)c1=O	inactive: > 76.9 µM
CC(=Nc1ccc2c(c1)CCC2)c1c(O)n(C)c(=O)n(C)c1=O	inactive: > 76.9 µM
CC(=O)Nc1cc(C(=O)N2CCC3(CC2)OCCO3)ccc1S(=O)(=O)c1ccc(C)cc1	inactive: > 76.9 µM
CCSc1nnc([C@@H](N)Cc2c[nH]c3ccccc23)o1	inactive
CC(=O)NC1CC2CCCC(C1)N2 (centres undefined)	inactive: > 76.9 µM
CC12CN3C(O)C(C)(C1)CC(C)(C2)C3O (centres undefined)	inactive: > 76.9 µM
C=CCn1c(O)c(C(C)=NCc2cc(OC)cc(OC)c2)c(=O)[nH]c1=O	inactive: > 76.9 µM
CC1CCC(NCCc2ccc3c(c2)OCO3)CC1 (centres undefined)	inactive: > 76.9 µM
O=C(Cn1cc(C(=O)c2ccccc2F)c2ccccc21)NCc1ccco1	inactive: > 76.9 µM
COc1ccc(CCn2c(O)c(C=NCc3ccc4c(c3)OCO4)c(=O)[nH]c2=O)cc1OC	inactive: > 76.9 µM
COc1ccc(CC2C(=O)NC(=O)NC2=O)c(OC)c1	inactive: > 76.9 µM
CCN1C(=O)c2ccccc2Sc2ccc(C(=O)N3CCC4(CC3)OCCO4)cc21	inactive: > 76.9 µM
CCOC(=O)c1c(C)n(CCOC)c2ccc(O)cc12	inactive: > 76.9 µM
O=c1cccc2n1CC1CC2CN(c2ncnc3c2cnn3-c2ccccc2)C1 (centres undefined)	inactive: > 76.9 µM
CCCCn1c(=O)c(C(=O)Nc2cnccn2)c(O)c2ccccc21	inactive: > 76.9 µM
COc1ccc(CCn2c(O)c(C=NCc3cccnc3)c(=O)[nH]c2=O)cc1OC	inactive: > 76.9 µM
Cc1noc(C)c1C(=O)N1CCC2(CC1)OCCO2	inactive: > 76.9 µM
CN(C)CCN=Cc1c(O)n(-c2cccc(C(F)(F)F)c2)c(=O)[nH]c1=O	inactive: > 76.9 µM
Nc1ccnn1C1CCNCC1	inactive: > 76.9 µM
O=c1[nH]c(=O)n(Cc2ccccc2)c(O)c1C=NCCCn1ccnc1	inactive: > 76.9 µM
Nc1ccc(N2CCN(Cc3ccccc3Cl)CC2)c(Cl)c1	inactive

Structure (SMILES)	Potency
CCC(=O)N1c2ccc(S(=O)(=O)CCC(=O)N3CCC4(CC3)OCCO4)cc2CC1C (centres undefined)	inactive: > 76.9 µM
N#Cc1ccccc1Cn1cc(C(=O)c2cccs2)c2ccccc21	inactive: > 76.9 µM
Cc1nc2cc(-c3cccc(F)c3)nn2c(C)c1CCC(=O)N1CCC2(CC1)OCCO2	inactive: > 76.9 µM
CCOC(=O)C1=C(N)Oc2cc(C)oc(=O)c2C12C(=O)N1c3c(cccc32)C(C)=CC1(C)C (centres undefined)	inactive: > 76.9 µM
CP(=O)(O)CCCN	inactive: > 76.9 µM
CCCCn1c(O)c(C(CC)=NCCCN(C)C)c(=O)[nH]c1=O	inactive: > 76.9 µM
O=C(CN1C(=O)CCSc2ccccc21)N1CCC2(CC1)OCCO2	inactive: > 76.9 µM
O=C(Cn1c2c(c(-c3ccccc3Cl)cc1=O)CCC2)N1CCC2(CC1)OCCO2	inactive: > 76.9 µM
Cc1cc(OCc2nn[nH]n2)c2c3c(c(=O)oc2c1)CCCC3	inactive: > 76.9 µM
Cn1c(=O)cc(OCC(=O)N2CCN(Cc3ccc4c(c3)OCO4)CC2)c2ccccc21	inactive: > 76.9 µM
CC(C)C12CN3CCN(CC(C3)C1O)C2 (centres undefined)	inactive: > 76.9 µM
c1ccc(C2=NP(N3CCOCC3)(N3CCOCC3)=NC(N3CCOCC3)=N2)cc1	inactive: > 76.9 µM
O=C(Cn1ncc2ccccc21)N1CCC2(CC1)OCCO2	inactive: > 76.9 µM
CC(c1ccccc1F)n1cc(C(=O)Nc2ccc3nc[nH]c3c2)nn1 (centres undefined)	inactive
Nc1ccccc1C(=O)OCCOc1ccccc1	inactive: > 76.9 µM
CC12CC(c3ccccc3O1)C(C(=O)OCc1ccccc1)C(=O)N2 (centres undefined)	inactive: > 76.9 µM
C=CCn1c(O)c(C(CC)=Nc2cc(OC)ccc2OC)c(=O)[nH]c1=O	inactive: > 76.9 µM
CNCC(O)c1cccc(OC(=O)c2ccccc2C)c1 (centres undefined)	inactive: > 76.9 µM
COc1ccc(C2C(C(=O)N3CCC4(CC3)OCCO4)c3cc(OC)c(OC)cc3C(=O)N2C)cc1 (centres undefined)	inactive: > 76.9 µM
CC(=Nc1ccc2c(c1)CCC2)c1c(O)n(C2CCCCC2)c(=O)[nH]c1=O	inactive: > 76.9 µM
C=CCn1c(O)c(C(C)=Nc2ccc(N(CC)CC)cc2)c(=O)[nH]c1=O	inactive: > 76.9 µM
COc1cc(OC)cc(-n2nc(C(=O)N3CCC4(CC3)OCCO4)c3ccccc3c2=O)c1	inactive: > 76.9 µM
Cc1ccc(N2C(=O)NC(=O)C3(Cc4ccccc4N4CCN(c5ccccc5)CC43)C2=O)cc1 (centres undefined)	inactive: > 76.9 µM

Structure (SMILES)	Potency
CN1C(=O)N(C)C(=O)C2(Cc3c(ccc4ccccc34)N(C)C2)C1=O	inactive: > 76.9 µM
CCCCn1c(O)c(C(C)=NCCc2ccccc2)c(=O)[nH]c1=O	inactive: > 76.9 µM
CCC(=NCCN1CCOCC1)c1c(O)n(-c2ccccc2C)c(=O)[nH]c1=O	inactive: > 76.9 µM
Cc1cccn2c(=O)c3cc(C(=O)N4CCC5(CC4)OCCO5)n(C)c3nc12	inactive: > 76.9 µM
COC(=O)CC1=C(C(=O)OC)C2(C(=O)N(C)c3ccccc32)C(C#N)=C(N)O1 (centres undefined)	inactive: > 76.9 µM
COC(=O)c1c(C)n(Cc2ccc3c(c2)OCO3)c2ccc(O)cc12	inactive: > 76.9 µM
CCOC(=O)C1=C(N)Oc2cc(C)oc(=O)c2C12C(=O)N1c3c(cc(OC)cc32)C(C)=CC1(C)C (centres undefined)	inactive: > 76.9 µM
Cc1ccc2c(c1)CC1(CN2C)C(=O)NC(=O)N(C(C)C)C1=O (centres undefined)	inactive: > 76.9 µM
CCOC(=O)C1=C(C)OC(N)=C(C#N)C12C(=O)Nc1ccc(C)cc12 (centres undefined)	inactive: > 76.9 µM
CN1CCN(c2ccc(NC(=O)C(C)(C)C)cc2)CC1	inactive: > 76.9 µM
C=Cn1ccnc1P(=S)(c1c(C)nn(-c2ccccc2)c1C)c1nccn1C=C	inactive: > 76.9 µM
CC1(C)C2CC=C(CN3CCC(O)CC3)C1C2 (centres undefined)	inactive: > 76.9 µM
C=CCn1c(O)c(C(CC)=Nc2ccccc2NC(C)=O)c(=O)[nH]c1=O	inactive: > 76.9 µM
CCC(C)N1C(=O)NC(=O)C2(Cc3c(ccc4ccccc34)N(C)C2)C1=O (centres undefined)	inactive: > 76.9 µM
Cc1cc(S(=O)(=O)NC(C)C)ccc1OCC(=O)N1CCN(Cc2ccc3c(c2)OCO3)CC1	inactive: > 76.9 µM
CC(=NC1CCN(Cc2ccccc2)CC1)c1c(O)n(C)c(=O)n(C)c1=O	inactive: > 76.9 µM
Cc1cccc(CS(=O)(=O)Cc2ccc(C(=O)N3CCC4(CC3)OCCO4)o2)c1	inactive: > 76.9 µM
Cc1ccc(-n2c(O)c(C=Nc3ccccc3N)c(=O)[nH]c2=O)cc1C	inactive: > 76.9 µM
O=C(Cn1cnc2sc3c(c2c1=O)CCCC3)NCCC(=O)N1CCC2(CC1)OCCO2	inactive: > 76.9 µM
CCCCC(=O)C1C(=O)NC(=O)NC1=O	inactive: > 76.9 µM
CC(=NCc1ccco1)c1c(O)n(Cc2ccccc2)c(=O)[nH]c1=O	inactive: > 76.9 µM
COc1ccc(CCNCc2ccccn2)cc1OC	inactive: > 76.9 µM
CCOP(=O)(C#CC(C)(C)C)C1(O)CCCCC1 (centres undefined)	inactive: > 76.9 µM

Structure (SMILES)	Potency
N=c1sc2c(n1Cc1ccccc1)CCCC2	inactive: > 76.9 µM
CN1CCN(CC(=O)Nc2ccc(Cl)cc2C(=O)c2ccccc2)CC1	inactive: > 76.9 µM
CCn1nc(-c2cccs2)nc2c(=O)n(C)c(=O)nc1-2	inactive: > 76.9 µM
COC(=O)CCCNC(=O)CN1CC(c2ccccc2)CC1=O (centres undefined)	inactive: > 76.9 µM
CN(C)C(=O)Oc1ccc(OC(=O)c2ccccc2)cc1	inactive: > 76.9 µM
CC(=O)Nc1ccc(OC(=O)N(C)C)cc1	inactive: > 76.9 µM
COCc1c(CN)cnc(C)c1N	inactive: > 76.9 µM
O=P(C(c1ccc2c(c1)OCO2)N1CCOCC1)(N1CCOCC1)N1CCOCC1 (centres undefined)	inactive: > 76.9 µM
O=C(Cn1nc(Cc2cccnc2)c2ccccc2c1=O)N1CCC2(CC1)OCCO2	inactive: > 76.9 µM
NC(=O)Nc1cccc(C(F)(F)F)c1	inactive: > 76.9 µM
O=C1CC(N2CCC(n3c(=O)[nH]c4ccccc43)CC2)C(=O)N1Cc1ccccc1 (centres undefined)	inactive: > 76.9 µM
Cc1cccc(-n2c(C)nc3cc(C(=O)N4CCC5(CC4)OCCO5)ccc32)c1	inactive: > 76.9 µM
Oc1ccc(C2NCc3ccccc3-n3cccc32)cc1Cl (centres undefined)	inactive: > 76.9 µM
CC(=O)N1CC(=O)Nc2ccc(Cl)cc2C1c1ccc(F)cc1 (centres undefined)	inactive: > 76.9 µM
CC(=NCCN1CCOCC1)c1c(O)n(-c2ccccc2C)c(=O)[nH]c1=O	inactive: > 76.9 µM
O=c1cccc2n1CC1CC2CN(Cc2cccc(Cl)c2Cl)C1 (centres undefined)	inactive: > 76.9 µM
CCN(CC)C(=O)c1ccc(NC(=O)c2cc(-n3cnnc3)ccc2Cl)cc1	inactive: > 76.9 µM
COc1ncccc1C(=O)NCC(CC(=O)O)c1ccccc1 (centres undefined)	inactive: > 76.9 µM
COc1ccc(Nc2ncc(C(=O)N3CCC4(CC3)OCCO4)c3ccccc23)cc1	inactive: > 76.9 µM
CC(=O)Nc1ccc(OC(=O)N2CCCCC2)cc1	inactive: > 76.9 µM
